Results taken from PubChem BioAssay AID1963576 (National Center for Advancing Translational Sciences (NCATS), 2024).
Out of some 46,000 compounds screened, about 60 (0.1%) were called active. Another 3% or so got no clear call; they are omitted. Calls follow the shape of the dose curve; as a rule, active = well fitted inhibition curve with a large enough effect; inconclusive = small, poorly fitted or top-dose-only effect; inactive = no such curve, though single readings can be large or run the other way. Some of the results follow.

Experiment: Primary qHTS assay for Inhibitors of ovarian cancer metastasis using an organotypic tumor microenvironment (TME) model. Also: nearly all actives have a fitted effect of over 65% in size.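 As to activity change, negative = inhibition: plate controls were DMSO wells for no effect and tomatine positive control wells for full effect.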
Conditions: SKOV3ip1-GFP adhesion/invasion on 3D omental model, fluorescence; series mostly up to 45.8 µM; activity change, negative = inhibition: at the top concentration
Procedure, shortened: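 qHTS, 4-pt dose (0.36-46 umol/L); SKOV3ip1-GFP, 1,200 cells/well, no FBS; primary omental fibroblast/mesothelial co-culture 48 h pre-grown; 2 h RT + 16 h 37 C; PBS wash, 4% PFA; GFP count 488/509 nm.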

Activity change, negative = inhibition, inactive:
COc1ccc(-c2nnn3c2nc(N2CCCC(C)C2)c2ccccc23)cc1 (configuration not stated) -1.45%
CCOC(=O)c1ccccc1NC(=O)CSc1nc2ncccc2[nH]1 2.42%
CCN1c2ccccc2-c2nc(SCC(=O)Nc3ccc(C)c(Cl)c3)ncc2S1(=O)=O 2.63%
Cc1ccc(S(=O)(=O)NCc2nc3nc(C)cc(C)n3n2)c(C)c1 2.58%
O=c1c2sc3ccccc3c2n(Cc2ccccc2)c(=O)n1Cc1ccccc1 2.46%
COc1ccc(N2CCN(CC(O)COc3ccc(C(C)(C)C)cc3)CC2)cc1 (configuration not stated) -8.29%
Cc1ccc(S(=O)(=O)c2[nH]c(-c3ccccc3)nc2SCC(=O)O)cc1 -3.95%
CCOC(=O)c1ccc(NC(=O)CC2C(=O)N(c3ccccc3)C(=O)N2Cc2cccs2)cc1 (configuration not stated) 15.9%
O=C1NC(=O)[C@@H](c2cn3c4c(cccc24)CCC3)[C@H]1c1c[nH]c2ccccc12 -20.4%
Cc1ccc(Cl)cc1NC(=O)c1ccc(-c2nc(CSc3ccccc3)c(C)o2)cc1 0.627%
CCC(=O)N1c2ccccc2CC1C(=O)N1CCN(c2ccccc2)CC1 (configuration not stated) -6.58%
CCc1ccc(CN(C(=O)c2nc(SC)ncc2Cl)C2CCS(=O)(=O)C2)cc1 (configuration not stated) -10.2%
CCN(C(=O)Cc1c(C(=O)O)[nH]c2ccccc12)c1ccc(OC)cc1 3.71%
CCOC(=O)c1ccc(NC(=O)CCc2c(C)nc3c(c(C)nn3C)c2C)cc1 -4.66%
CCOc1ccccc1NC(=O)Cn1c(=O)ccc2cc(S(=O)(=O)N3CCC(C)CC3)ccc21 -13%
O=c1c2c3c(sc2nnn1Cc1ccc(Br)cc1)CCCC3 -0.42%
O=S(=O)(NCCc1csc(-c2ccc(F)cc2)n1)c1ccc(Cl)cc1 1.64%
CC(=O)c1ccc(N2CCN(C(=O)C3CCN(S(=O)(=O)c4cccc5nonc45)CC3)CC2)cc1 0.319%
O=C(CSc1nccn1Cc1ccc(Cl)cc1)NC1CCCC1 -15.5%
Cc1ccc(CN2CCSc3ccc(C(=O)N4CCN(c5cccc(C)c5C)CC4)cc32)cc1 -2.86%
O=C(c1cc2ccccc2oc1=O)N(Cc1cccc(Cl)c1)C1CCS(=O)(=O)C1 (configuration not stated) 3.33%
CCOC(=O)C1CCN(C(=O)C2COc3ccccc3C2)CC1 (configuration not stated) -2.54%

outcome, inactive:
CCOC(=O)C1CCCN(S(=O)(=O)c2ccc3[nH]c(=O)ccc3c2)C1 (configuration not stated)
CCOc1ccc(CNC(=O)c2ccc3nc(Cc4ccc(OC)cc4)oc3c2)cc1OC
Cc1ccc2c(CNCCc3ccc(Cl)cc3)c(C(=O)O)n(Cc3ccc(F)cc3)c2c1
CC(C)Cc1nn2c(=O)cc(COC(=O)c3ccc(NC(=O)c4cccs4)cc3)nc2s1
COc1ccc(-c2cnc(C)o2)cc1S(=O)(=O)Nc1ccc(C)c(F)c1
